# Data from publication PMC12820563, “FoxP3 forms a head-to-head dimer in vivo and stabilizes its multimerization on adjacent microsatellites”.
# Some of the results follow.
# Biological target: T1, MBP-FoxP1dN (Mus musculus, UniProt P58462 326-579)
# T1 sequence: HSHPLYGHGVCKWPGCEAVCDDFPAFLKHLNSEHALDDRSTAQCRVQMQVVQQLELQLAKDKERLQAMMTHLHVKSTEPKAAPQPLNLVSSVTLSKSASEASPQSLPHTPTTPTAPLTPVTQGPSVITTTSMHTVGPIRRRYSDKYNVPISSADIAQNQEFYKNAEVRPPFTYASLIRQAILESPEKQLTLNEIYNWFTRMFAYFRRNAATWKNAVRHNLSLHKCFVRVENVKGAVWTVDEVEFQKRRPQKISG
# Assay: PD-seq (MBP pull-down with sequencing); 20 mM Tris-HCl pH 7.5, 100 mM NaCl, 1.5 mM MgCl2, 0.4 uM protein, 0.1 uM dsDNA library, 30 min, room temperature, amylose pull-down; high values mean tight binding
# Details: protein: recombinant; tags: His6-MBP; chain copies: 2; dsDNA, one strand shown
# Method in brief: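 A fragment of mouse FoxP3 or FoxP1 without its N-terminus, carrying a His6-MBP tag and produced in E. coli, was combined at 0.4 µM with a 0.1 µM degenerate double-stranded DNA library filled in with Klenow. The mixture sat for 30 min at room temperature in Tris pH 7.5 buffer containing NaCl and MgCl2. Protein–DNA complexes were captured on amylose resin, washed three times, and the DNA was freed with proteinase K, barcoded by PCR and sequenced on Illumina. Binding is expressed as reads-per-million enrichment of pull-down over input, with replicates pooled.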
row,Sequence,binding signal
1,GATGATTGTTCTCCCAGCTGATGAATTGTACTCATCGAGTAAACAAATTTTCCTAATCTTTCTGTTCAAGCGCCATCTAC,1.04 RPM ratio (pull-down/input)
2,GATGATTGTTCTCCCAGCTGATGAATTTGTATGCTCGAGTAAACAAATTTTCCTAATCTTTCTGTTCAAGCGCCATCTAC,1.43 RPM ratio (pull-down/input)
3,GATGATTGTTCTCCCAGCTGATGAATTCGGAAAGTCGAGTAAACAAATTTTCCTAATCTTTCTGTTCAAGCGCCATCTAC,0.767 RPM ratio (pull-down/input)
4,GATGATTGTTCTCCCAGCTGATGAATTCGTCTATTCGAGTAAACAAATTTTCCTAATCTTTCTGTTCAAGCGCCATCTAC,0.974 RPM ratio (pull-down/input)
5,GATGATTGTTCTCCCAGCTGATGAATTACTGTCATCGAGTAAACAAATTTTCCTAATCTTTCTGTTCAAGCGCCATCTAC,1.34 RPM ratio (pull-down/input)
6,GATGATTGTTCTCCCAGCTGATGAATTCATACGCTCGAGTAAACAAATTTTCCTAATCTTTCTGTTCAAGCGCCATCTAC,0.87 RPM ratio (pull-down/input)
7,GATGATTGTTCTCCCAGCTGATGAATTGTTACTCTCGAGTAAACAAATTTTCCTAATCTTTCTGTTCAAGCGCCATCTAC,1.24 RPM ratio (pull-down/input)
8,GATGATTGTTCTCCCAGCTGATGAATTAGGAAGGTCGAGTAAACAAATTTTCCTAATCTTTCTGTTCAAGCGCCATCTAC,0.81 RPM ratio (pull-down/input)
9,GATGATTGTTCTCCCAGCTGATGAATTCAAGCCGTCGAGTAAACAAATTTTCCTAATCTTTCTGTTCAAGCGCCATCTAC,0.753 RPM ratio (pull-down/input)
10,GATGATTGTTCTCCCAGCTGATGAATTCTGCCTCTCGAGTAAACAAATTTTCCTAATCTTTCTGTTCAAGCGCCATCTAC,0.93 RPM ratio (pull-down/input)
11,GATGATTGTTCTCCCAGCTGATGAATTGCGCTGGTCGAGTAAACAAATTTTCCTAATCTTTCTGTTCAAGCGCCATCTAC,1.13 RPM ratio (pull-down/input)
12,GATGATTGTTCTCCCAGCTGATGAATTTAGCTCGTCGAGTAAACAAATTTTCCTAATCTTTCTGTTCAAGCGCCATCTAC,0.852 RPM ratio (pull-down/input)
13,GATGATTGTTCTCCCAGCTGATGAATTATTTTGGTCGAGTAAACAAATTTTCCTAATCTTTCTGTTCAAGCGCCATCTAC,1.35 RPM ratio (pull-down/input)
14,GATGATTGTTCTCCCAGCTGATGAATTTAGGAGTTCGAGTAAACAAATTTTCCTAATCTTTCTGTTCAAGCGCCATCTAC,0.96 RPM ratio (pull-down/input)
15,GATGATTGTTCTCCCAGCTGATGAATTAGGCTTTTCGAGTAAACAAATTTTCCTAATCTTTCTGTTCAAGCGCCATCTAC,0.831 RPM ratio (pull-down/input)
16,GATGATTGTTCTCCCAGCTGATGAATTAGACTAGTCGAGTAAACAAATTTTCCTAATCTTTCTGTTCAAGCGCCATCTAC,0.914 RPM ratio (pull-down/input)

row,Sequence,binding signal
1,GATGATTGTTCTCCCAGCTGATGAATTCGTATGTTCGAGTAAACAAATTTTCCTAATCTTTCTGTTCAAGCGCCATCTAC,1.11 RPM ratio (pull-down/input)
2,GATGATTGTTCTCCCAGCTGATGAATTTGCACAATCGAGTAAACAAATTTTCCTAATCTTTCTGTTCAAGCGCCATCTAC,1.49 RPM ratio (pull-down/input)
3,GATGATTGTTCTCCCAGCTGATGAATTTTGTCGGTCGAGTAAACAAATTTTCCTAATCTTTCTGTTCAAGCGCCATCTAC,0.897 RPM ratio (pull-down/input)
4,GATGATTGTTCTCCCAGCTGATGAATTCAATTTATCGAGTAAACAAATTTTCCTAATCTTTCTGTTCAAGCGCCATCTAC,1.19 RPM ratio (pull-down/input)
5,GATGATTGTTCTCCCAGCTGATGAATTACAGGACTCGAGTAAACAAATTTTCCTAATCTTTCTGTTCAAGCGCCATCTAC,0.979 RPM ratio (pull-down/input)
6,GATGATTGTTCTCCCAGCTGATGAATTGGCCTATTCGAGTAAACAAATTTTCCTAATCTTTCTGTTCAAGCGCCATCTAC,0.922 RPM ratio (pull-down/input)
7,GATGATTGTTCTCCCAGCTGATGAATTGTGATCTTCGAGTAAACAAATTTTCCTAATCTTTCTGTTCAAGCGCCATCTAC,1.22 RPM ratio (pull-down/input)
8,GATGATTGTTCTCCCAGCTGATGAATTATCCGTATCGAGTAAACAAATTTTCCTAATCTTTCTGTTCAAGCGCCATCTAC,1.02 RPM ratio (pull-down/input)
9,GATGATTGTTCTCCCAGCTGATGAATTTTCAGGTTCGAGTAAACAAATTTTCCTAATCTTTCTGTTCAAGCGCCATCTAC,0.85 RPM ratio (pull-down/input)
10,GATGATTGTTCTCCCAGCTGATGAATTAGTAATATCGAGTAAACAAATTTTCCTAATCTTTCTGTTCAAGCGCCATCTAC,1.18 RPM ratio (pull-down/input)
11,GATGATTGTTCTCCCAGCTGATGAATTCATATTATCGAGTAAACAAATTTTCCTAATCTTTCTGTTCAAGCGCCATCTAC,1.24 RPM ratio (pull-down/input)
12,GATGATTGTTCTCCCAGCTGATGAATTCGCGCACTCGAGTAAACAAATTTTCCTAATCTTTCTGTTCAAGCGCCATCTAC,0.879 RPM ratio (pull-down/input)
13,GATGATTGTTCTCCCAGCTGATGAATTGTTTATCTCGAGTAAACAAATTTTCCTAATCTTTCTGTTCAAGCGCCATCTAC,2.68 RPM ratio (pull-down/input)
14,GATGATTGTTCTCCCAGCTGATGAATTGCGTCGATCGAGTAAACAAATTTTCCTAATCTTTCTGTTCAAGCGCCATCTAC,1.04 RPM ratio (pull-down/input)
15,GATGATTGTTCTCCCAGCTGATGAATTAAGCTGCTCGAGTAAACAAATTTTCCTAATCTTTCTGTTCAAGCGCCATCTAC,0.944 RPM ratio (pull-down/input)
16,GATGATTGTTCTCCCAGCTGATGAATTCGTCGGGTCGAGTAAACAAATTTTCCTAATCTTTCTGTTCAAGCGCCATCTAC,0.832 RPM ratio (pull-down/input)
